From the supplement of paper PMC11348887
Structures can show the parent of a compound that is named as a salt. The list shows a part of the results. Rule as the data show it: active = -2 or less and inactive = the rest. Many values rest on one well or one pass, so single values are uncertain.

Test system: hPSC-derived cortical neurons (WA09)
Assay: nuclei number (viability) z-score; higher = more surviving cells
Conditions: 5 µM; treatment: days 7-14 after plating, readout day 21
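Also: nuclei counted from DAPI counterstain by automated high-content image analysis, four fields per well at ×20 in 384-well plates, with sequential b-score then z-score normalization.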

SMILES	nuclei number (z-score)
COc1ccccc1N1CCN(CCN(C(=O)C2CCCCC2)c2ccccn2)CC1	inactive: 0.253
Cc1cc(C)c(Nc2ccnc(Nc3ccc(C#N)cc3)n2)c(C)c1 [Dapivirine (TMC120)]	inactive: 6.23
Cc1cc(/C=C2/SC(=S)NC2=O)c(C)n1-c1cccnc1 [Optovin]	inactive: 0.41
C[C@@H](NC(=O)c1ncnc(N)c1Cl)c1ncc(C(=O)Nc2cc(C(F)(F)F)c(Cl)cn2)s1	inactive: 0.908
Clc1ccc(CSC(Cn2ccnc2)c2ccc(Cl)cc2Cl)cc1 (configuration not stated) [Sulconazole Nitrate]	inactive: -1.52
O=C(c1ccc(Nc2nccc(-c3cc4ccccc4s3)n2)cc1)N1CCC(N2CCCC2)CC1 [IKK-16 (IKK Inhibitor VII)]	active: -5.35
Nc1ncnc2c1ncn2[C@@H]1O[C@H](CO)[C@@H](O)[C@H]1O [Adenosine]	inactive: 0.487
N=C(N)NC(=O)Cc1c(Cl)cccc1Cl [Guanfacine Hydrochloride]	inactive: 0.392
O=C1Nc2ccccc2/C1=C1/Nc2ccccc2C1=O [Indirubin]	inactive: -1.27
COc1cc(C(=O)O)ccc1NC(=O)[C@@H]1N[C@@H](CC(C)(C)C)[C@](C#N)(c2ccc(Cl)cc2F)[C@H]1c1cccc(Cl)c1F [Idasanutlin (RG-7388)]	inactive: 0.319
O=C(O)C(O)Cc1ccc(O)c(O)c1 (configuration not stated) [Sodium Danshensu]	inactive: 2.17
N[C@@H](Cc1cc(I)c(Oc2cc(I)c(O)c(I)c2)c(I)c1)C(=O)O [L-Thyroxine]	inactive: 1.59
CC1(C)CCC(C)(C)c2cc(NC(=O)c3ccc(C(=O)O)cc3)ccc21 [Tamibarotene]	inactive: 1.24
Oc1ccc(OC2CCCCO2)cc1 (configuration not stated) [Deoxyarbutin]	inactive: 0.549
Nc1cccc2c1C(=O)N(C1CCC(=O)NC1=O)C2=O (configuration not stated) [Pomalidomide]	inactive: 0.0222
COc1cc(O)c(C(=O)c2ccccc2)cc1S(=O)(=O)O [Sulisobenzone]	inactive: 1.44
CN(C)CCOC(c1ccccc1)c1ccccc1 [Diphenhydramine HCl]	inactive: 0.578
CN1CCN(C(=O)C2C(C(=O)O)[C@H]3CC[C@@H]2O3)CC1 (some centres not stated)	inactive: 0.627
COc1ccc2[nH]c([S+]([O-])Cc3ncc(C)c(OC)c3C)nc2n1 (configuration not stated) [Tenatoprazole]	inactive: -0.0211
CCOC(=O)CCNc1cc(N2CCc3ccccc3CC2)nc(-c2ccccn2)n1	active: -2.01
CN(C)CC/C=C1/c2ccccc2Sc2ccc(Cl)cc21 [Chlorprothixene]	inactive: 0.203
CC(=O)[C@H]1CC[C@H]2[C@@H]3CCC4=CC(=O)CC[C@]4(C)[C@H]3CC[C@]12C [Progesterone]	inactive: -0.512
Cn1cc(CNCC2CCN(c3ncc(C(=O)NO)cn3)CC2)c2ccccc21	active: -2.81
O=C(O)CSc1nnc(Br)n1-c1ccc(C2CC2)c2ccccc12 [Lesinurad]	inactive: 0.594

SMILES	nuclei number (z-score)
CCN(CC)C(=O)c1cccc(C)c1	inactive: -1.13
CCCN(CCC)S(=O)(=O)c1ccc(C(=O)O)cc1 [Probenecid]	inactive: 0.494
CCNC(=O)Nc1ccc(-c2nc3c(c(N4CCOC[C@@H]4C)n2)CCN(C2COC2)C3)cc1	inactive: -1.36
C[C@]12CC[C@@H]3c4ccc(O)cc4CC[C@H]3[C@@H]1CC[C@@H]2O [Estradiol]	inactive: 0.468
CCNC(=O)c1[nH]nc(-c2cc(Cl)c(O)cc2O)c1-c1ccc(OC)cc1	active: -2.04
CC(C)c1ccc(NC(=O)Cn2cnc3c2c(=O)n(C)c(=O)n3C)cc1	inactive: 0.349
C[C@H](NC(=O)/C(C#N)=C/c1cccc(Br)n1)c1ccccc1	inactive: 0.193
CO/N=C(\C(=O)N[C@@H]1C(=O)N2C(C(=O)OCOC(=O)C(C)(C)C)=C(/C=C\c3scnc3C)CS[C@H]12)c1csc(N)n1 [Cefditoren Pivoxil]	inactive: 2.85
O=C(Nc1ccccc1)c1cc([N+](=O)[O-])ccc1Cl	inactive: -0.0242
C=C1C(=O)O[C@@H]2/C=C(\C)CC/C=C(\C)CC[C@@H]12 [Costunolide]	inactive: -1.09
CCCc1cc(=O)[nH]c(=S)[nH]1 [Propylthiouracil]	inactive: -0.179
COc1ccc(CCN(C)CCCC(C#N)(c2ccc(OC)c(OC)c2)C(C)C)cc1OC (configuration not stated) [Verapamil HCl]	inactive: -0.282
Cc1onc(-c2ccccc2)c1-c1ccc(S(N)(=O)=O)cc1 [Valdecoxib]	inactive: -0.081
N[C@@H](CSCCB(O)O)C(=O)O	inactive: 0.132
C[C@]12CCC(=O)C=C1CC[C@@H]1[C@@H]2[C@@H](O)C[C@@]2(C)[C@H]1CC[C@]2(O)C(=O)CO [Hydrocortisone]	inactive: -0.483
C=CC(=O)Nc1cccc(C)c1Nc1ncc2cc(-c3c(Cl)c(OC)cc(OC)c3Cl)ccc2n1	inactive: -0.103
COc1cc(-c2cn(C)c(=O)c3cnccc23)cc(OC)c1CN(C)C	inactive: 0.747
CCOC(=O)C1=C[C@@H](OC(CC)CC)[C@H](NC(C)=O)[C@@H](N)C1 [Oseltamivir Phosphate]	inactive: 2.09
C=C[C@]1(C)C[C@@H](OC(=O)CS[C@@H]2C[C@H]3CC[C@@H](C2)N3C)[C@]2(C)[C@H](C)CC[C@]3(CCC(=O)[C@H]32)[C@@H](C)[C@@H]1O [Retapamulin]	inactive: 0.0348
Oc1ncnc2[nH]ncc12 [Allopurinol]	inactive: -0.792
CN(N=O)C(=O)NC1C(O)OC(CO)C(O)C1O (configuration not stated) [Streptozotocin (STZ)]	inactive: -0.385
O=C(CCc1ccc(O)cc1)c1c(O)cc(O)cc1O[C@@H]1O[C@H](CO)[C@@H](O)[C@H](O)[C@H]1O [Phlorizin]	inactive: 0.118
COc1ccccc1C(=O)Nc1cc2c(cc1N1CCCC1)n(C)c(=O)n2C	inactive: 1.68
CC1(C)S[C@@H]2[C@H](NC(=O)[C@H](N)c3ccc(O)cc3)C(=O)N2[C@H]1C(=O)O [Amoxicillin Sodium]	inactive: 2.39

SMILES	nuclei number (z-score)
CC1(C)S[C@@H]2[C@H](NC(=O)[C@H](N)c3ccc(O)cc3)C(=O)N2[C@H]1C(=O)O [Amoxicillin]	inactive: 1.6
Cc1cc(C(=O)NOCCO)c(Nc2ccc(I)cc2F)n(C)c1=O	inactive: -0.131
COc1cccc2c1C(=O)c1c(O)c3c(c(O)c1C2=O)C[C@@](O)(C(=O)CO)C[C@@H]3O[C@H]1C[C@H](N)[C@H](O)[C@H](C)O1 [Doxorubicin (Adriamycin)]	inactive: -1.83
CCC(=O)O[C@@H](O[P@](=O)(CCCCc1ccccc1)CC(=O)N1C[C@H](C2CCCCC2)C[C@H]1C(=O)O)C(C)C [Fosinopril Sodium]	inactive: -0.387
OCCOCCN1CCN(C2=Nc3ccccc3Sc3ccccc32)CC1 [Quetiapine Fumarate]	inactive: 0.0945
Cc1nc(Nc2cnn(C3CCNCC3)c2)nc2c1N(C)C(=O)c1cc3ccccc3cc1N2C	inactive: -0.111
Cn1nnc(-c2ccc(-c3ccc(N4C[C@H](COP(=O)(O)O)OC4=O)cc3F)cn2)n1 [Tedizolid Phosphate]	inactive: -0.0186
Nc1nc(Cl)nc2c1ncn2[C@H]1C[C@H](O)[C@@H](CO)O1 [Cladribine]	active: -2.84
CN[C@@H]1[C@H](O[C@H]2[C@H](O[C@H]3[C@H](O)[C@@H](O)[C@H](N=C(N)N)[C@@H](O)[C@@H]3N=C(N)N)O[C@@H](C)[C@]2(O)C=O)O[C@@H](CO)[C@H](O)[C@H]1O [Streptomycin sulfate]	inactive: -0.0128
CCCc1cc(-c2nc(-c3ccc(C)cc3)cs2)ccn1 [Fatostatin HBr]	inactive: -0.0857
O=C(C=Cc1ccccc1)NC(NC(=S)Nc1ccc(Cl)cc1)C(Cl)(Cl)Cl (configuration not stated)	inactive: 0.542
O=C([C@@H](Cc1cccc(C(F)(F)F)c1)NS(=O)(=O)c1cc(F)c2c(c1)CCNC2)N1CCCC1	inactive: 1.77
Cc1ccc(Nc2c(F)cccc2Cl)c(CC(=O)O)c1 [Lumiracoxib]	inactive: 1.3
Fc1ccc(C(c2ccc(F)cc2)N2CCN(C/C=C/c3ccccc3)CC2)cc1 [Flunarizine 2HCl]	inactive: -1.31
Oc1ccc([C@H]2COc3cc(O)ccc3C2)cc1 [Equol]	inactive: -0.0247
O=c1cc(-c2cccc3c2Sc2ccccc2S3)oc(N2CCOCC2)c1	inactive: 0.831
Cc1[nH]c2ccccc2c1CCNC(=O)c1cccs1	inactive: -0.501
N=C(N)c1ccc(OCCCCCOc2ccc(C(=N)N)cc2)cc1 [Pentamidine]	active: -7.47
Cc1nc2ccc(-n3ncc(C(=O)c4cc5ccccc5[nH]4)c3N)cc2[nH]1	inactive: 1.77
CCCCC(=O)O[C@H]1CC[C@H]2[C@@H]3CCc4cc(O)ccc4[C@H]3CC[C@]12C [Estradiol valerate]	inactive: 2.57
N#Cc1c(O)c2c(-c3ccc(-c4ccccc4O)cc3)csc2[nH]c1=O	inactive: 0.549
CC1C(=O)OC2C(O)C34C5CC(C(C)(C)C)C36C(OC(=O)C6O)OC4(C(=O)O5)C12O (configuration not stated) [Ginkgolide B]	inactive: -0.112
C[N+](C)(C)CCCCCC[N+](C)(C)C [Hexamethonium Bromide]	inactive: 1.02
O=c1ccc2ccc(OCCCCN3CCN(c4cccc5sccc45)CC3)cc2[nH]1 [Brexpiprazole]	inactive: -0.314
